Experimental data from publication PMC9911399, “Two distinct binding modes provide the RNA-binding protein RbFox with extraordinary sequence specificity”.
Changes are numbered by the printed parent chain; changes in the protein carry UniProt numbers. The list shows a part of the results.

T1: RBFOX1 RRM RbFoxmut (Fox-RRM*) (Homo sapiens, UniProt Q9NWB1 109-208, R118D;E147R;N151S;E152T)
T1 sequence: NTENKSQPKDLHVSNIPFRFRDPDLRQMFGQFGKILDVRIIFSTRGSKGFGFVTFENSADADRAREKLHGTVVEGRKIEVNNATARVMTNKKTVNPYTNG

B1: CGCGGCA (DNA:RNA)
RNA: GGGAGACCGGAAUUCAGAUUGUCCCGCGGCAUUAAAUCCCGUCGUAGCCACCA
DNA 1: CAATCTGAATTCCGGTCTCCC
DNA 2: TGGTGGCTACGACGGGATT
B2: AGUCAGU (DNA:RNA)
RNA: B1 RNA with C25A, C27U, G28C, G29A, C30G, A31U
DNA 1: CAATCTGAATTCCGGTCTCCC
DNA 2: TGGTGGCTACGACGGGATT
B3: CAACCCU (DNA:RNA)
RNA: B1 RNA with G26A, C27A, G28C, G29C, A31U
DNA 1: CAATCTGAATTCCGGTCTCCC
DNA 2: TGGTGGCTACGACGGGATT
B4: CGUCAUG (DNA:RNA)
RNA: B1 RNA with C27U, G28C, G29A, C30U, A31G
DNA 1: CAATCTGAATTCCGGTCTCCC
DNA 2: TGGTGGCTACGACGGGATT
B5: CUCUACA (DNA:RNA)
RNA: B1 RNA with G26U, G28U, G29A
DNA 1: CAATCTGAATTCCGGTCTCCC
DNA 2: TGGTGGCTACGACGGGATT
B6: ACCUAGC (DNA:RNA)
RNA: B1 RNA with C25A, G26C, G28U, G29A, C30G, A31C
DNA 1: CAATCTGAATTCCGGTCTCCC
DNA 2: TGGTGGCTACGACGGGATT
B7: GCAAGUG (DNA:RNA)
RNA: B1 RNA with C25G, G26C, C27A, G28A, C30U, A31G
DNA 1: CAATCTGAATTCCGGTCTCCC
DNA 2: TGGTGGCTACGACGGGATT
B8: AUACGCG (DNA:RNA)
RNA: B1 RNA with C25A, G26U, C27A, G28C, A31G
DNA 1: CAATCTGAATTCCGGTCTCCC
DNA 2: TGGTGGCTACGACGGGATT
B9: UGCCAAG (DNA:RNA)
RNA: B1 RNA with C25U, G28C, G29A, C30A, A31G
DNA 1: CAATCTGAATTCCGGTCTCCC
DNA 2: TGGTGGCTACGACGGGATT
B10: UGCUCAA (DNA:RNA)
RNA: B1 RNA with C25U, G28U, G29C, C30A
DNA 1: CAATCTGAATTCCGGTCTCCC
DNA 2: TGGTGGCTACGACGGGATT
B11: GUGGUUU (DNA:RNA)
RNA: B1 RNA with C25G, G26U, C27G, G29U, C30U, A31U
DNA 1: CAATCTGAATTCCGGTCTCCC
DNA 2: TGGTGGCTACGACGGGATT
B12: UUGGAGG (DNA:RNA)
RNA: B1 RNA with C25U, G26U, C27G, G29A, C30G, A31G
DNA 1: CAATCTGAATTCCGGTCTCCC
DNA 2: TGGTGGCTACGACGGGATT
B13: CUUGGGA (DNA:RNA)
RNA: B1 RNA with G26U, C27U, C30G
DNA 1: CAATCTGAATTCCGGTCTCCC
DNA 2: TGGTGGCTACGACGGGATT
B14: AGCGGGA (DNA:RNA)
RNA: B1 RNA with C25A, C30G
DNA 1: CAATCTGAATTCCGGTCTCCC
DNA 2: TGGTGGCTACGACGGGATT
B15: UAUGUGG (DNA:RNA)
RNA: B1 RNA with C25U, G26A, C27U, G29U, C30G, A31G
DNA 1: CAATCTGAATTCCGGTCTCCC
DNA 2: TGGTGGCTACGACGGGATT
B16: AUUGGCG (DNA:RNA)
RNA: B1 RNA with C25A, G26U, C27U, A31G
DNA 1: CAATCTGAATTCCGGTCTCCC
DNA 2: TGGTGGCTACGACGGGATT
B17: UGUACGU (DNA:RNA)
RNA: B1 RNA with C25U, C27U, G28A, G29C, C30G, A31U
DNA 1: CAATCTGAATTCCGGTCTCCC
DNA 2: TGGTGGCTACGACGGGATT
B18: GUAAUCU (DNA:RNA)
RNA: B1 RNA with C25G, G26U, C27A, G28A, G29U, A31U
DNA 1: CAATCTGAATTCCGGTCTCCC
DNA 2: TGGTGGCTACGACGGGATT
B19: ACCUCAA (DNA:RNA)
RNA: B1 RNA with C25A, G26C, G28U, G29C, C30A
DNA 1: CAATCTGAATTCCGGTCTCCC
DNA 2: TGGTGGCTACGACGGGATT
B20: GACCCCG (DNA:RNA)
RNA: B1 RNA with C25G, G26A, G28C, G29C, A31G
DNA 1: CAATCTGAATTCCGGTCTCCC
DNA 2: TGGTGGCTACGACGGGATT
B21: UAGGAUG (DNA:RNA)
RNA: B1 RNA with C25U, G26A, C27G, G29A, C30U, A31G
DNA 1: CAATCTGAATTCCGGTCTCCC
DNA 2: TGGTGGCTACGACGGGATT
B22: ACGCAUA (DNA:RNA)
RNA: B1 RNA with C25A, G26C, C27G, G28C, G29A, C30U
DNA 1: CAATCTGAATTCCGGTCTCCC
DNA 2: TGGTGGCTACGACGGGATT
B23: UACAGGC (DNA:RNA)
RNA: B1 RNA with C25U, G26A, G28A, C30G, A31C
DNA 1: CAATCTGAATTCCGGTCTCCC
DNA 2: TGGTGGCTACGACGGGATT
B24: GGUCCGG (DNA:RNA)
RNA: B1 RNA with C25G, C27U, G28C, G29C, C30G, A31G
DNA 1: CAATCTGAATTCCGGTCTCCC
DNA 2: TGGTGGCTACGACGGGATT
B25: GCACAAA (DNA:RNA)
RNA: B1 RNA with C25G, G26C, C27A, G28C, G29A, C30A
DNA 1: CAATCTGAATTCCGGTCTCCC
DNA 2: TGGTGGCTACGACGGGATT
B26: GUCCCCA (DNA:RNA)
RNA: B1 RNA with C25G, G26U, G28C, G29C
DNA 1: CAATCTGAATTCCGGTCTCCC
DNA 2: TGGTGGCTACGACGGGATT
B27: GUAUUGA (DNA:RNA)
RNA: B1 RNA with C25G, G26U, C27A, G28U, G29U, C30G
DNA 1: CAATCTGAATTCCGGTCTCCC
DNA 2: TGGTGGCTACGACGGGATT
B28: CUGUUUU (DNA:RNA)
RNA: B1 RNA with G26U, C27G, G28U, G29U, C30U, A31U
DNA 1: CAATCTGAATTCCGGTCTCCC
DNA 2: TGGTGGCTACGACGGGATT
B29: ACUUGCC (DNA:RNA)
RNA: B1 RNA with C25A, G26C, C27U, G28U, A31C
DNA 1: CAATCTGAATTCCGGTCTCCC
DNA 2: TGGTGGCTACGACGGGATT
B30: GUAUAAA (DNA:RNA)
RNA: B1 RNA with C25G, G26U, C27A, G28U, G29A, C30A
DNA 1: CAATCTGAATTCCGGTCTCCC
DNA 2: TGGTGGCTACGACGGGATT
B31: CGGACGG (DNA:RNA)
RNA: B1 RNA with C27G, G28A, G29C, C30G, A31G
DNA 1: CAATCTGAATTCCGGTCTCCC
DNA 2: TGGTGGCTACGACGGGATT

These binders were tested against T1, RBFOX1 RRM RbFoxmut (Fox-RRM*) (assay: EMSA; HiTS-Eq, 1 nM pool, 10 min; buffer printed only for the single-RNA assays: 10 mM Tris pH 7.5, 150 mM NaCl, 3.4 mM EDTA, 0.001% NP-40, 30 C). Conditions: tags: His6 N-terminal (pET28a); label: 5' 32P.
Method in brief: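 A pool of RNA with 7 randomized nucleotides, 5′-radiolabelled and with DNA-annealed flanks, was equilibrated at 1 nM for 10 min in 50 µL with purified RbFox RRM, wild type or mutant, across increasing protein concentrations. Free RNA was separated by 8% native PAGE, excised, reverse-transcribed, barcoded by PCR and sequenced. Relative association constants were obtained from read-count changes of each RNA species versus the control reaction and normalised to the cognate motif.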

| Binder | binding signal |
| --- | --- |
| B1 | 0.132 KA relative to UGCAUGU |
| B2 | 0.0793 KA relative to UGCAUGU |
| B3 | 0.102 KA relative to UGCAUGU |
| B4 | 0.275 KA relative to UGCAUGU |
| B5 | 0.124 KA relative to UGCAUGU |
| B6 | 0.104 KA relative to UGCAUGU |
| B7 | 0.122 KA relative to UGCAUGU |
| B8 | 0.125 KA relative to UGCAUGU |
| B9 | 0.101 KA relative to UGCAUGU |
| B10 | 0.0896 KA relative to UGCAUGU |
| B11 | 0.115 KA relative to UGCAUGU |
| B12 | 0.0998 KA relative to UGCAUGU |
| B13 | 0.0775 KA relative to UGCAUGU |
| B14 | 0.119 KA relative to UGCAUGU |
| B15 | 0.118 KA relative to UGCAUGU |
| B16 | 0.146 KA relative to UGCAUGU |

| Binder | binding signal |
| --- | --- |
| B17 | 0.165 KA relative to UGCAUGU |
| B18 | 0.067 KA relative to UGCAUGU |
| B19 | 0.0841 KA relative to UGCAUGU |
| B20 | 0.0671 KA relative to UGCAUGU |
| B21 | 0.159 KA relative to UGCAUGU |
| B22 | 0.152 KA relative to UGCAUGU |
| B23 | 0.079 KA relative to UGCAUGU |
| B24 | 0.126 KA relative to UGCAUGU |
| B25 | 0.084 KA relative to UGCAUGU |
| B26 | 0.0674 KA relative to UGCAUGU |
| B27 | 0.212 KA relative to UGCAUGU |
| B28 | 0.0825 KA relative to UGCAUGU |
| B29 | 0.372 KA relative to UGCAUGU |
| B30 | 0.15 KA relative to UGCAUGU |
| B31 | 0.0977 KA relative to UGCAUGU |
